# Data: PubChem BioAssay (NCATS)
# The shares of active, inactive and inconclusive entries below differ from those in the screen. No potency is given beside an inconclusive call; the fits are too rough. Active and inactive are the calls of the source. Calls come from the whole dose curve; as a rule, active = well fitted curve in the direction sought with a large enough effect; inconclusive = small, poorly fitted or top-dose-only effect, or another doubt; inactive = no such curve, though single readings can be large; an effect the other way counts as inactive or inconclusive.
# What was measured:
# [1] = molecular target: Rap guanine nucleotide exchange factor 3 (Homo sapiens) (UniProt O95398); test: Confirmatory qHTS for antagonist of cAMP-regulated guanine nucleotide exchange factor 3 (EPAC1) (AID 1645880); conditions: EPAC1 Rap1B-BODIPY-GDP exchange, fluorescence; activity, negative = inhibition: at 115 µM (top of the series); note: nearly all actives have a fitted effect of over 55% in size;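 for activity, negative = inhibition: plate controls were DMSO only for no effect and full effect of the ATA control for full effect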
# Chain of UniProt O95398 (O95398 whole entry, looked up): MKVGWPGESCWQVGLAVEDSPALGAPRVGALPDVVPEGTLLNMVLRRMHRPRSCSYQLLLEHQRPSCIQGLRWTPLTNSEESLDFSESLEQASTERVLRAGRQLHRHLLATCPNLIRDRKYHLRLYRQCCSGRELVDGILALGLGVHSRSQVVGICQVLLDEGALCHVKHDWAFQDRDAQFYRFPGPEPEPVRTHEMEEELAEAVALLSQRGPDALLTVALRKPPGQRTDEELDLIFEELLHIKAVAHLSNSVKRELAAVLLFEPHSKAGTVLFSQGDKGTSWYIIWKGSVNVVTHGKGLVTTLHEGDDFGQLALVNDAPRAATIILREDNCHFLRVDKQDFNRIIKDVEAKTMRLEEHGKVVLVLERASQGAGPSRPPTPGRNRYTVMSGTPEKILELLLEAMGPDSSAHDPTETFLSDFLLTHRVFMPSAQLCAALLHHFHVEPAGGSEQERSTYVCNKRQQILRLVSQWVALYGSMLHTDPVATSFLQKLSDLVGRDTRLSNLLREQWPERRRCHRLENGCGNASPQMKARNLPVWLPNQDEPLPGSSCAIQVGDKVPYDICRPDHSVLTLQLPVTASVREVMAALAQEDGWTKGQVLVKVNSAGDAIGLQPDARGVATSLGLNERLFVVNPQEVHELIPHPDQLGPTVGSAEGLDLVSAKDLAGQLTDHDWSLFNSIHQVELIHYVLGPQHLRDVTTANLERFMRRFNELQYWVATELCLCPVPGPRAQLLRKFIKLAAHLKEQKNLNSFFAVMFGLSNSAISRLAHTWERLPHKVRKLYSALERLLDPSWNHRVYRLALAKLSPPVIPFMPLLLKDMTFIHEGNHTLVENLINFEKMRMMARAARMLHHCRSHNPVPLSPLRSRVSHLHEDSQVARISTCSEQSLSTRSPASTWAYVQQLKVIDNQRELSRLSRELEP
# In short: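 Nucleotide exchange uses 100 nM EPAC1, 250 nM RAP1B-BODIPY-GDP and 50 uM GDP, with compounds in a concentration-titration series. After 5 min at room temperature, fluorescence (480 nm ex/540 nm em) is read every 5 min for 30 min. Data are normalized to control ATA and DMSO.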
# [2] = molecular target: Rap guanine nucleotide exchange factor 4 (Homo sapiens) (UniProt Q8WZA2); test: Confirmatory qHTS for antagonist of cAMP-regulated guanine nucleotide exchange factor 4 (EPAC2) (AID 1645885); conditions: activity change, negative = inhibition: at 12.7 µM (top of the series) unless noted; note: nearly all actives have a fitted effect of over 25% in size; for activity change, negative = inhibition: % is set by controls: 0 for no effect and ±100 for the full control effect
# Chain of UniProt Q8WZA2 (Q8WZA2 whole entry, looked up): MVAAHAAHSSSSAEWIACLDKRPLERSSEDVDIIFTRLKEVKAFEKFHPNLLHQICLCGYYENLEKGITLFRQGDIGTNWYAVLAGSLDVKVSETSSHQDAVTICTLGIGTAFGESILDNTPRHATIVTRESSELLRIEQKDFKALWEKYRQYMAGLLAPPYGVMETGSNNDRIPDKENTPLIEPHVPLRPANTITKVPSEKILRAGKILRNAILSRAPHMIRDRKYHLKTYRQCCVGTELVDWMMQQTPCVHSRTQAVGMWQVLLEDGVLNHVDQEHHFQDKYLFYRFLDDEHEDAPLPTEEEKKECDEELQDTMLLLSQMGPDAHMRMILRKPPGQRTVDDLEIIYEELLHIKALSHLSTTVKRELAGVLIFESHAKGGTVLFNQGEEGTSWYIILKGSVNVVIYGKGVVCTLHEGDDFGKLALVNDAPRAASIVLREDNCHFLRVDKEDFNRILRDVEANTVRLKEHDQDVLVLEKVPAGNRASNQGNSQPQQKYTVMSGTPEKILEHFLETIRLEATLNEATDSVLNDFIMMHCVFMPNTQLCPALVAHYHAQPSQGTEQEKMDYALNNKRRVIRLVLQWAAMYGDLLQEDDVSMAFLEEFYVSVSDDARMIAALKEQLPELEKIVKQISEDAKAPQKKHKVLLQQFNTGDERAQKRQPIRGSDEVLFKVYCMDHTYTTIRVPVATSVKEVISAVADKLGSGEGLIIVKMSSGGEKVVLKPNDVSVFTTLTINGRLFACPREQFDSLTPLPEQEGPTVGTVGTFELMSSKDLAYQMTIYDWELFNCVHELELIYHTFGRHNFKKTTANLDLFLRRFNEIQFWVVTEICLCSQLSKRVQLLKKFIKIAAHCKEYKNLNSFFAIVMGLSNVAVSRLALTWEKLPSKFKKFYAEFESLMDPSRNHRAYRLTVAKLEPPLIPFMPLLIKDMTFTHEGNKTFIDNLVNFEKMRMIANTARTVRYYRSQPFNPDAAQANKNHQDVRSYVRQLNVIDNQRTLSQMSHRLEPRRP
# [3] = molecular target: Rap guanine nucleotide exchange factor 3 (Homo sapiens) (UniProt O95398); test: Counterscreen qHTS for agonist of cAMP-regulated guanine nucleotide exchange factor 3 (EPAC1) (AID 1645889); conditions: EPAC1 Rap1B-BODIPY-GDP exchange, fluorescence; activation: at 154 µM (top of the series) unless noted; note: nearly all actives have a fitted effect of over 40% in size; for activation: % of control where 0% means no effect
# In short: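 Rap1B–BODIPY-GDP (250 nM) with 50 uM GDP; compounds pin-transferred to 9.74 nM–152 uM final (activator) or from 7.32 nM upwards (inhibitor). Fluorescence Ex/Em 480/540 nm read at 5 and 30 min, then after adding cAMP or buffer, at room temperature.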
# Potency is the fitted concentration of half-maximal effect; tags give direction and shape of the fitted curve.
smiles,measurement,setting,value
Cn1cc(/C=C/c2ccc3ccccc3n2)c2ccccc21,Potency,[1],inactive
same,Potency,[2],"inconclusive [inhibitor, partial curve]"
O=C(c1ccc(CN2CCc3ccccc3C2)cc1)N1CCCCC1,Potency,[1],inactive
same,Potency,[2],"inconclusive [inhibitor, single point]"
Cc1ccc(S(=O)(=O)N2[C@@H](c3cccc(Cl)c3)C(C(=O)O)=CC[C@H]2c2ccc(Cl)c(Cl)c2)cc1,Potency,[1],active: 67.5 µM
same,Potency,[2],"inconclusive [inhibitor, partial curve]"
CC(C)=CCC[C@H](C)C[C@@H]1Cc2[nH][nH]c(=O)c2[C@H](c2ccc(F)cc2)O1,Potency,[1],"inconclusive [inhibitor, partial curve]"
same,Potency,[2],"inconclusive [inhibitor, full curve]"
CC(=O)NC(C)(c1ccccc1)c1nc(-c2cccc(C(F)(F)F)c2)cs1 (stereo unspecified),Potency,[1],"inconclusive [inhibitor, partial curve]"
same,Potency,[2],inactive
O=C(CN1C(=O)NC2(CCCC2)C1=O)Nc1nc2c(F)cc(F)cc2s1,Potency,[1],inactive
same,Potency,[2],"inconclusive [inhibitor, single point]"
Cc1ccc(/C=N/N2CCN(Cc3cccc4ccccc34)CC2)o1,Potency,[1],"inconclusive [inhibitor, partial curve]"
same,Potency,[2],inactive
Cc1ccc(C)c(CSc2nnc(C)n3c2cc2sccc23)c1,Potency,[1],inactive
same,Potency,[2],inactive
C[C@H](CO)N1C[C@H](C)[C@@H](CN(C)Cc2ccc(Cl)c(Cl)c2)Oc2c(NC(=O)CCC(F)(F)F)cccc2C1=O,Potency,[1],"inconclusive [inhibitor, partial curve]"
same,Potency,[2],active: 19 µM
COc1ccc2nc(N3C(=O)C(O)=C(C(=O)c4ccco4)C3c3ccc(C)o3)sc2c1 (stereo unspecified),Potency,[1],active: 26.9 µM
same,Potency,[2],"inconclusive [inhibitor, full curve]"
CCCCOc1ccc(C(=O)N/N=C/c2cn[nH]c2-c2ccc(OC)c(OC)c2)cc1,Potency,[1],"inconclusive [inhibitor, partial curve]"
same,Potency,[2],"inconclusive [inhibitor, full curve]"
CCC(=O)NC(c1cccs1)c1cc(Cl)c2ccccc2c1O (stereo unspecified),Potency,[1],inactive
same,Potency,[2],inactive
CC(=Cc1ccccc1)C=C1SC(=S)N(CCCC(=O)Nc2ccc(C(=O)O)cc2)C1=O,Potency,[1],"inconclusive [inhibitor, partial curve]"
same,Potency,[2],inactive
Cc1ccc(N2CC(c3nc4ccccc4[nH]3)CC2=O)c(C)c1 (stereo unspecified),Potency,[1],inactive
same,Potency,[2],"inconclusive [inhibitor, single point]"
Cc1ccc(C2CC(c3cccs3)=NN2C(=O)c2ccco2)o1 (stereo unspecified),Potency,[1],"inconclusive [inhibitor, partial curve]"
same,Potency,[2],"inconclusive [inhibitor, single point]"
C[C@@H](c1ccccc1)N1Cc2ccccc2Oc2cc(Br)ccc2S1(=O)=O,Potency,[1],inactive
same,Potency,[2],active: 2.69 µM
CCC(CC)NC(=O)c1ccccc1Oc1ccccc1,Potency,[1],inactive
same,Potency,[2],"inconclusive [inhibitor, partial curve, poor fit]"
Nc1nc(C(c2ccccc2)c2ccccc2)cs1,Potency,[1],inactive
same,Potency,[2],"inconclusive [inhibitor, partial curve]"
Cc1ccc2oc(=O)c3cnn(CC(=O)NC4CCC(C)CC4)c3c2c1 (stereo unspecified),Potency,[1],"inconclusive [inhibitor, partial curve, poor fit]"
same,Potency,[2],"inconclusive [inhibitor, partial curve, poor fit]"
Cc1cc(C)c(S(=O)(=O)c2ccc(F)cc2)c(C)c1,Potency,[1],inactive
same,Potency,[2],"inconclusive [inhibitor, partial curve, poor fit]"
Nc1nc2c(ncn2[C@@H]2O[C@H](CNS(=O)(=O)N3CCCC3)[C@@H](O)[C@H]2O)c(=O)[nH]1,Potency,[1],inactive
same,Potency,[2],"inconclusive [inhibitor, single point]"
O=C(O)c1cccc(N/N=C/c2cc(Br)cc(Br)c2O)c1,Potency,[1],active: 75.7 µM
same,Potency,[2],active: 67.5 µM
Cc1[nH]c2ccccc2c1/C=C/c1ccc2ccccc2n1,Potency,[1],inactive
same,Potency,[2],"inconclusive [inhibitor, single point]"
COC(=O)c1cc(C#N)c(Oc2ccccc2OC)nc1C,Potency,[1],inactive
same,Potency,[2],inactive
COC(=O)c1sc(-c2ccc(C(C)(C)C)cc2)cc1NC(=O)CSCC(=O)O,Potency,[1],"inconclusive [inhibitor, partial curve]"
same,Potency,[2],"inconclusive [inhibitor, single point]"
CC(C)C1COC(c2cccn2Cc2ccccc2Cl)=N1 (stereo unspecified),Potency,[1],"inconclusive [inhibitor, partial curve, poor fit]"
same,Potency,[2],inactive
same,Potency,[3],"inconclusive [activator, full curve, poor fit]"
Cc1cc(C)nc(SCC(=O)c2ccc(C)c(C)c2)n1,Potency,[1],"inconclusive [inhibitor, partial curve, poor fit]"
same,Potency,[2],active: 13.5 µM
same,Potency,[3],inactive
Nc1c2ccccc2nc2ccccc12 (tested in a mixture with another compound),Potency,[1],"inconclusive [inhibitor, partial curve]"
same,Potency,[2],"inconclusive [inhibitor, single point]"
COC1OC(c2ccccc2)=C(c2cnc(N)nc2)c2ccc(F)cc21 (stereo unspecified),Potency,[1],"inconclusive [inhibitor, partial curve, poor fit]"
same,Potency,[2],"inconclusive [inhibitor, partial curve]"
same,activation,[3],inactive: 11.3% [at 30.8 µM]
CC1(C)OCC(C2CC(c3ccccc3)NS(=O)(=O)O2)O1 (stereo unspecified),Potency,[1],inactive
same,Potency,[2],inactive
same,Potency,[3],"inconclusive [activator, partial curve, poor fit]"
COc1ccc(S(=O)(=O)N2CCCCC2)cc1C(C)C,Potency,[1],inactive
same,Potency,[2],active: 8.49 µM
C=C1CC2C(=O)N(Cc3cc(OC)ccc3OC)C(C(=O)OCC)(C(=O)OCC)C1N2C(=O)OC(C)(C)C (stereo unspecified),Potency,[1],"inconclusive [inhibitor, partial curve]"
same,Potency,[2],"inconclusive [inhibitor, partial curve, poor fit]"
same,Potency,[3],inactive
CCOc1ccccc1NC(=O)C1COc2ccccc2O1 (stereo unspecified),Potency,[1],"inconclusive [inhibitor, full curve, poor fit]"
same,Potency,[2],"inconclusive [inhibitor, partial curve]"
same,activation,[3],inconclusive: 53.7% [activator]
COc1ccccc1NS(=O)(=O)c1ccc2ccccc2c1,Potency,[1],"inconclusive [inhibitor, full curve]"
same,Potency,[2],"inconclusive [inhibitor, partial curve, poor fit]"
same,activation,[3],inactive: 16.4% [at 30.8 µM]
Cc1cccc(CN2[C@@H](CC(C)C)COCCS2(=O)=O)c1,Potency,[1],inactive
same,Potency,[2],inactive
same,Potency,[3],inactive
O=C(O)c1ccc(COc2ccccc2/C=C2\NC(=O)N(Cc3ccc(F)cc3)C2=O)cc1,Potency,[1],"inconclusive [inhibitor, partial curve]"
same,Potency,[2],"inconclusive [inhibitor, partial curve, poor fit]"
CCOC(=O)c1c(NC(=O)CSc2nc3ccc(C)cc3[nH]2)sc2c1CC(C)(C)NC2(C)C,Potency,[1],inactive
same,Potency,[2],"inconclusive [inhibitor, full curve]"
same,activation,[3],inconclusive: 41.6% [activator]
O=C(COc1ccc(Cl)cc1Cl)c1ccc[nH]1,Potency,[1],"inconclusive [inhibitor, partial curve]"
same,Potency,[2],"inconclusive [inhibitor, partial curve, poor fit]"
COc1cc(/C=C2/C(=O)NN(c3cccc(Cl)c3)C2=O)cc(OC)c1O,Potency,[1],"inconclusive [inhibitor, partial curve]"
same,Potency,[2],inactive
same,activation,[3],inactive: 4.51% [at 30.8 µM]
O=C(O)c1ccccc1N/N=C/C1=C(N2CCOCC2)C(=C\c2ccccc2)/CC1,Potency,[1],active: 67.5 µM
same,Potency,[2],inactive
same,Potency,[3],"inconclusive [activator, full curve, poor fit]"
O=C(O)c1cc(NN=C2c3ccccc3-c3ccccc32)ccc1Cl,Potency,[1],"inconclusive [inhibitor, partial curve]"
same,Potency,[2],"inconclusive [inhibitor, partial curve]"
same,Potency,[3],inactive
CCOC(=O)C1=C(C)NC(C)=C(C(=O)OCC)C1C(=O)OCC(=O)NCc1ccc(F)cc1,Potency,[1],"inconclusive [inhibitor, partial curve, poor fit]"
same,Potency,[2],"inconclusive [inhibitor, partial curve]"
same,Potency,[3],inactive
C=CCn1c(N)c(S(=O)(=O)c2cccs2)c2nc3ccccc3nc21,Potency,[1],active: 33.8 µM
same,Potency,[2],"inconclusive [inhibitor, partial curve, poor fit]"
same,Potency,[3],"inconclusive [activator, single point]"
O=C(Nc1cc(Cl)cc(Cl)c1)c1ccc(F)c(S(=O)(=O)NC2CCCC2)c1,Potency,[1],"inconclusive [inhibitor, partial curve]"
same,outcome,[2],inactive [at 12.7 µM]
same,Potency,[3],"inconclusive [activator, partial curve]"
CC1=Nc2ccccc2N=C(NC(=O)/C=C/C(=O)O)C1c1ccccc1 (stereo unspecified),Potency,[1],"inconclusive [inhibitor, partial curve, poor fit]"
same,Potency,[2],active: 0.0675 µM
same,Potency,[3],inactive
